This is an account of results in the supplement of paper PMC4466236.

Whole data set: some 33,000 sequences, median “E-score (dimensionless, -0.5 to 0.5)” near -0.058, cut for the highest 2% near 0.35. The list shows a part of the results.

The test deals with MvaT. The experiment in a line: PBM 8-mer E-score (mean of HK and ME arrays) (E-score (dimensionless, -0.5 to 0.5)); higher = stronger relative binding preference; most listed sequences are background and not binding sites. A digest of the protocol: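 Reported values are rank-based E-scores, taken as the mean of two universal arrays and parsed with a custom script. Each 8-mer score falls between -0.5 and 0.5. The arrays, ME and HK, were double-stranded 60-mers with a constant 25-mer primer region and a variable 35-mer region covering all 8-mers. They were probed, by an earlier protocol, with full-length P. aeruginosa MvaT carrying an N-terminal glutathione S-transferase fusion.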
Regarding CAGCCTGG, the “PBM 8-mer E-score” value was -0.102.
To ATATCGGA belongs 0.19; to TACCCGTA, 0.0309; to CTCCTACC, -0.239.
On to ATCGCCGA, for which the “PBM 8-mer E-score” value is -0.115.
Consider AGTCCCCA, for which the “PBM 8-mer E-score” value was -0.113.
The result for AAAAGGGT reads -0.0876.
With TCGGATAA, the “PBM 8-mer E-score” value was -0.00106.
To TCTTATAA belongs 0.369; to CTTCGCGA, -0.146; to CGCGTAAC, 0.00987.
With ATTAAAGC, the “PBM 8-mer E-score” value came to 0.262.
The result for TCACTCCA reads -0.0685; that for CAGCGCTC, -0.304.
With CGGTCAGA, the “PBM 8-mer E-score” value was -0.0901.
To AAATGGAC belongs 0.0192; to AGCAGTTC, -0.151.
The result for TCAGGTAA reads -0.0419; that for CGTTATAA, 0.39; that for ATCAGCCA, -0.0988.
To TACGGGGA belongs -0.178.
In the case of AGGCCATC, the “PBM 8-mer E-score” value was -0.264.
To ACCTAGCC belongs -0.0954.
On to AGGCTGTG, for which the “PBM 8-mer E-score” value was -0.117.
The result for ATGCCATC reads -0.12; that for AACCCGGA, -0.134; that for CCGGTGCC, -0.18.
GCATATAC: the “PBM 8-mer E-score” value is 0.311.
As to ACGCGGTA, the “PBM 8-mer E-score” value is -0.0934.
As for GTTCAGTA, the “PBM 8-mer E-score” value was 0.104.
For the sequence CCTGACCG, the “PBM 8-mer E-score” value is -0.219.
On to CGTTATCC, for which the “PBM 8-mer E-score” value is 0.009.
To CAACTCTG belongs 0.0926; to AACAGACC, 0.108; to CTCGGATC, -0.138.
The result for AAAGATTT reads 0.198.
Turning to CATTCGCC, the “PBM 8-mer E-score” value worked out at 0.0201.
To CCCTTTTC belongs -0.195.
The result for AGAATCCC reads -0.25; that for CTCGGGGC, -0.33; that for CTCCATTC, -0.121.
CACAGTAC: the “PBM 8-mer E-score” value was found to be 0.00579.
The result for AAATCATT reads 0.238; that for CTACGGTC, -0.189.
The result for CACAACAC reads 0.191; that for CAGTCCGG, -0.204; that for ATTGCTCC, -0.176.
The result for GTATAGCA reads 0.0414; that for CCTTCCAA, -0.101.
For CATAGGCG, the “PBM 8-mer E-score” value was -0.161.
The result for TACACCTA reads 0.00738; that for ACGGGCAT, -0.126; that for GCTAGAGC, -0.338.
On to GCAGGGAC, for which the “PBM 8-mer E-score” value is -0.247.
For the sequence GAACGCTA, the “PBM 8-mer E-score” value was -0.0451.
The result for GGGCAAAA reads -0.113; that for CCAGAGAG, -0.219.
To CGCTGGCC belongs -0.295; to GTAGCCAA, -0.177; to AAACCGTT, 0.0732.
The result for GTAGGCGA reads 0.00233.
With AGTATAAG, the “PBM 8-mer E-score” value stood at 0.272.
Take CGACAGTC: the “PBM 8-mer E-score” value was -0.161.
The result for CGAGAGTA reads -0.00732; that for AGCAGCTG, -0.254.
The result for CAGTGTGC reads -0.156; that for ATAAGATA, 0.33.
To AACTCGAT belongs -0.0303; to AAGACCAC, -0.183.
Regarding CTCATTGA, the “PBM 8-mer E-score” value is -0.0757.
The result for AGGATGGC reads -0.331.
Turning to ACACTCCG, the “PBM 8-mer E-score” value was -0.0139.
The result for CAGAGTGA reads -0.0469; that for ATTGGAGA, -0.0372.
For the sequence AATTGGAA, the “PBM 8-mer E-score” value was 0.215.
To CGGTGCGA belongs -0.219; to CGATGCCC, -0.285; to ACAACTCA, 0.164.
To CCAGACGG belongs -0.257; to AGAGGTTA, 0.0212.
With AATTCGAT, the “PBM 8-mer E-score” value worked out at 0.16.
To GTACTCAA belongs 0.0508; to ACGTGGGA, -0.0973.
To AGGCTATC belongs -0.2; to AATAGGAA, 0.158; to TGCCGAAA, -0.0937.
Take CCGCTATA: the “PBM 8-mer E-score” value turned out to be 0.0983.
The result for AATCACCG reads -0.05.
With GGATTGAA, the “PBM 8-mer E-score” value was -0.0812.
As to AGGCGTTC, the “PBM 8-mer E-score” value is -0.124.
Consider ATTCGAGC, for which the “PBM 8-mer E-score” value was found to be 0.00116.
To GTATGAAA belongs 0.222; to TATAGACA, 0.111.
To GATGAGGA belongs -0.133.
